Reference: the supplement of paper PMC12230231

What follows are sequences tested on SIVsab (simian immunodeficiency virus of sabaeus monkeys), single-cycle GFP reporter, in CRFK cells (assay: enrichment among uninfected cells over input (fold); higher = stronger restriction). Conditions: library: human / rhesus combinations.
Experimental: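 Pools of CRFK cells expressing variants of the TRIM5α v1 loop were challenged with the single-cycle reporter, sorted by GFP and sequenced; mean of two replicates.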
“MASGILVNVKEEVTCPICLELLTQPLSLDCGHSFCQACLTANHKKSMLDKGESSCPVCRISYQPENIRPNRHVANIVEKLREVKLSPEGQKVDHCARHGEKLLLFCQEDGKVICWLCERSQEHRGHHTFLTEEVAREYQVKLQAALEMLRQKQQEAEELEADIREEKASWKTQIQYDKTNVLADFEQLRDILDWEESNELQNLEKEEEDILKSLTNSETEMVQQTQSLRELISDLEHRLQGSVMELLQGVDGVIKRTENVTLKKPETFPKNQRRVFRAPDLKGMLEVFRELTDVRRYWVDVTVAPNNISCAVISEDKRQVSSPKPQIIYQAPGTRFPSFVNFNYCTGILGSQSITSGKHYWEVDVSKKTAWILGVCAGFQPDAMCNIEKNENYQPKYGYWVIGLEEGVKCSAFQDSSFHTPSVPFIVPLSVIICPDRVGVFLDYEACTVSFFNITNHGFLIYKFSHCSFSQPVFPYLNPRKCGVPMTLCSPSS [human TRIM5α, 330-340 = QAPGTRFPSFV]” was tested, and the enrichment was 0.487 ± 0.16. Work on “MASGILVNVKEEVTCPICLELLTQPLSLDCGHSFCQACLTANHKKSMLDKGESSCPVCRISYQPENIRPNRHVANIVEKLREVKLSPEGQKVDHCARHGEKLLLFCQEDGKVICWLCERSQEHRGHHTFLTEEVAREYQVKLQAALEMLRQKQQEAEELEADIREEKASWKTQIQYDKTNVLADFEQLRDILDWEESNELQNLEKEEEDILKSLTNSETEMVQQTQSLRELISDLEHRLQGSVMELLQGVDGVIKRTENVTLKKPETFPKNQRRVFRAPDLKGMLEVFRELTDVRRYWVDVTVAPNNISCAVISEDKRQVSSPKPQIIYQAPGTRFTFPTFTNFNYCTGILGSQSITSGKHYWEVDVSKKTAWILGVCAGFQPDAMCNIEKNENYQPKYGYWVIGLEEGVKCSAFQDSSFHTPSVPFIVPLSVIICPDRVGVFLDYEACTVSFFNITNHGFLIYKFSHCSFSQPVFPYLNPRKCGVPMTLCSPSS [human TRIM5α, 330-340 = QAPGTRFTFPTFT]” yielded an enrichment of 1.79 ± 0.85.

Same assay, conditions: library: insertions and deletions
Work on “MASGILVNVKEEVTCPICLELLTQPLSLDCGHSFCQACLTANHKKSMLDKGESSCPVCRISYQPENIRPNRHVANIVEKLREVKLSPEGQKVDHCARHGEKLLLFCQEDGKVICWLCERSQEHRGHHTFLTEEVAREYQVKLQAALEMLRQKQQEAEELEADIREEKASWKTQIQYDKTNVLADFEQLRDILDWEESNELQNLEKEEEDILKSLTNSETEMVQQTQSLRELISDLEHRLQGSVMELLQGVDGVIKRTENVTLKKPETFPKNQRRVFRAPDLKGMLEVFRELTDVRRYWVDVTVAPNNISCAVISEDKRQVSSPKPQIIYGARGTYGARGTRYQTFVNFNYCTGILGSQSITSGKHYWEVDVSKKTAWILGVCAGFQPDAMCNIEKNENYQPKYGYWVIGLEEGVKCSAFQDSSFHTPSVPFIVPLSVIICPDRVGVFLDYEACTVSFFNITNHGFLIYKFSHCSFSQPVFPYLNPRKCGVPMTLCSPSS [human TRIM5α, 6-codon duplication at 329]” yielded an enrichment of 0.467 ± 0.084. “MASGILVNVKEEVTCPICLELLTQPLSLDCGHSFCQACLTANHKKSMLDKGESSCPVCRISYQPENIRPNRHVANIVEKLREVKLSPEGQKVDHCARHGEKLLLFCQEDGKVICWLCERSQEHRGHHTFLTEEVAREYQVKLQAALEMLRQKQQEAEELEADIREEKASWKTQIQYDKTNVLADFEQLRDILDWEESNELQNLEKEEEDILKSLTNSETEMVQQTQSLRELISDLEHRLQGSVMELLQGVDGVIKRTENVTLKKPETFPKNQRRVFRAPDLKGMLEVFRELTDVRRYWVDVTVAPNNISCAVISEDKRQVSSPKPQIIYGARGTRYTFVNFNYCTGILGSQSITSGKHYWEVDVSKKTAWILGVCAGFQPDAMCNIEKNENYQPKYGYWVIGLEEGVKCSAFQDSSFHTPSVPFIVPLSVIICPDRVGVFLDYEACTVSFFNITNHGFLIYKFSHCSFSQPVFPYLNPRKCGVPMTLCSPSS [human TRIM5α, 1-codon deletion at 337]” gave an enrichment of 0.699 ± 0.38. In the case of “MASGILVNVKEEVTCPICLELLTQPLSLDCGHSFCQACLTANHKKSMLDKGESSCPVCRISYQPENIRPNRHVANIVEKLREVKLSPEGQKVDHCARHGEKLLLFCQEDGKVICWLCERSQEHRGHHTFLTEEVAREYQVKLQAALEMLRQKQQEAEELEADIREEKASWKTQIQYDKTNVLADFEQLRDILDWEESNELQNLEKEEEDILKSLTNSETEMVQQTQSLRELISDLEHRLQGSVMELLQGVDGVIKRTENVTLKKPETFPKNQRRVFRAPDLKGMLEVFRELTDVRRYWVDVTVAPNNISCAVISEDKRQVSSPKPQIIYGARIIYGARGTRYQTFVNFNYCTGILGSQSITSGKHYWEVDVSKKTAWILGVCAGFQPDAMCNIEKNENYQPKYGYWVIGLEEGVKCSAFQDSSFHTPSVPFIVPLSVIICPDRVGVFLDYEACTVSFFNITNHGFLIYKFSHCSFSQPVFPYLNPRKCGVPMTLCSPSS [human TRIM5α, 6-codon duplication at 327]”, the enrichment is reported as 0.503 ± 0.54. For “MASGILVNVKEEVTCPICLELLTQPLSLDCGHSFCQACLTANHKKSMLDKGESSCPVCRISYQPENIRPNRHVANIVEKLREVKLSPEGQKVDHCARHGEKLLLFCQEDGKVICWLCERSQEHRGHHTFLTEEVAREYQVKLQAALEMLRQKQQEAEELEADIREEKASWKTQIQYDKTNVLADFEQLRDILDWEESNELQNLEKEEEDILKSLTNSETEMVQQTQSLRELISDLEHRLQGSVMELLQGVDGVIKRTENVTLKKPETFPKNQRRVFRAPDLKGMLEVFRELTDVRRYWVDVTVAPNNISCAVISEDKRQVSSPKPQIIYGARGTGARGTRYQTFVNFNYCTGILGSQSITSGKHYWEVDVSKKTAWILGVCAGFQPDAMCNIEKNENYQPKYGYWVIGLEEGVKCSAFQDSSFHTPSVPFIVPLSVIICPDRVGVFLDYEACTVSFFNITNHGFLIYKFSHCSFSQPVFPYLNPRKCGVPMTLCSPSS [human TRIM5α, 5-codon duplication at 330]”, the enrichment was 0.739 ± 0.46. “MASGILVNVKEEVTCPICLELLTQPLSLDCGHSFCQACLTANHKKSMLDKGESSCPVCRISYQPENIRPNRHVANIVEKLREVKLSPEGQKVDHCARHGEKLLLFCQEDGKVICWLCERSQEHRGHHTFLTEEVAREYQVKLQAALEMLRQKQQEAEELEADIREEKASWKTQIQYDKTNVLADFEQLRDILDWEESNELQNLEKEEEDILKSLTNSETEMVQQTQSLRELISDLEHRLQGSVMELLQGVDGVIKRTENVTLKKPETFPKNQRRVFRAPDLKGMLEVFRELTDVRRYWVDVTVAPNNISCAVISEDKRQVSSPKPQIIYGARGTRIYGARGTRYQTFVNFNYCTGILGSQSITSGKHYWEVDVSKKTAWILGVCAGFQPDAMCNIEKNENYQPKYGYWVIGLEEGVKCSAFQDSSFHTPSVPFIVPLSVIICPDRVGVFLDYEACTVSFFNITNHGFLIYKFSHCSFSQPVFPYLNPRKCGVPMTLCSPSS [human TRIM5α, 8-codon duplication at 328]” showed an enrichment of 0.404 ± 0.059. Sequence “MASGILVNVKEEVTCPICLELLTQPLSLDCGHSFCQACLTANHKKSMLDKGESSCPVCRISYQPENIRPNRHVANIVEKLREVKLSPEGQKVDHCARHGEKLLLFCQEDGKVICWLCERSQEHRGHHTFLTEEVAREYQVKLQAALEMLRQKQQEAEELEADIREEKASWKTQIQYDKTNVLADFEQLRDILDWEESNELQNLEKEEEDILKSLTNSETEMVQQTQSLRELISDLEHRLQGSVMELLQGVDGVIKRTENVTLKKPETFPKNQRRVFRAPDLKGMLEVFRELTDVRRYWVDVTVAPNNISCAVISEDKRQVSSPKPQIIYGARGTRYQTFVNVNFNYCTGILGSQSITSGKHYWEVDVSKKTAWILGVCAGFQPDAMCNIEKNENYQPKYGYWVIGLEEGVKCSAFQDSSFHTPSVPFIVPLSVIICPDRVGVFLDYEACTVSFFNITNHGFLIYKFSHCSFSQPVFPYLNPRKCGVPMTLCSPSS [human TRIM5α, 2-codon duplication at 340]” has an enrichment of 0.357 ± 0.12. For “MASGILVNVKEEVTCPICLELLTQPLSLDCGHSFCQACLTANHKKSMLDKGESSCPVCRISYQPENIRPNRHVANIVEKLREVKLSPEGQKVDHCARHGEKLLLFCQEDGKVICWLCERSQEHRGHHTFLTEEVAREYQVKLQAALEMLRQKQQEAEELEADIREEKASWKTQIQYDKTNVLADFEQLRDILDWEESNELQNLEKEEEDILKSLTNSETEMVQQTQSLRELISDLEHRLQGSVMELLQGVDGVIKRTENVTLKKPETFPKNQRRVFRAPDLKGMLEVFRELTDVRRYWVDVTVAPNNISCAVISEDKRQVSSPKPQIIYGARGTTRYQTFVNFNYCTGILGSQSITSGKHYWEVDVSKKTAWILGVCAGFQPDAMCNIEKNENYQPKYGYWVIGLEEGVKCSAFQDSSFHTPSVPFIVPLSVIICPDRVGVFLDYEACTVSFFNITNHGFLIYKFSHCSFSQPVFPYLNPRKCGVPMTLCSPSS [human TRIM5α, 1-codon duplication at 334]”, the enrichment was 0.975 ± 0.52. In the case of “MASGILVNVKEEVTCPICLELLTQPLSLDCGHSFCQACLTANHKKSMLDKGESSCPVCRISYQPENIRPNRHVANIVEKLREVKLSPEGQKVDHCARHGEKLLLFCQEDGKVICWLCERSQEHRGHHTFLTEEVAREYQVKLQAALEMLRQKQQEAEELEADIREEKASWKTQIQYDKTNVLADFEQLRDILDWEESNELQNLEKEEEDILKSLTNSETEMVQQTQSLRELISDLEHRLQGSVMELLQGVDGVIKRTENVTLKKPETFPKNQRRVFRAPDLKGMLEVFRELTDVRRYWVDVTVAPNNISCAVISEDKRQVSSPKPQIIYGANFNYCTGILGSQSITSGKHYWEVDVSKKTAWILGVCAGFQPDAMCNIEKNENYQPKYGYWVIGLEEGVKCSAFQDSSFHTPSVPFIVPLSVIICPDRVGVFLDYEACTVSFFNITNHGFLIYKFSHCSFSQPVFPYLNPRKCGVPMTLCSPSS [human TRIM5α, 9-codon deletion at 332]”, the enrichment is reported as 1.01 ± 0.85. Sequence “MASGILVNVKEEVTCPICLELLTQPLSLDCGHSFCQACLTANHKKSMLDKGESSCPVCRISYQPENIRPNRHVANIVEKLREVKLSPEGQKVDHCARHGEKLLLFCQEDGKVICWLCERSQEHRGHHTFLTEEVAREYQVKLQAALEMLRQKQQEAEELEADIREEKASWKTQIQYDKTNVLADFEQLRDILDWEESNELQNLEKEEEDILKSLTNSETEMVQQTQSLRELISDLEHRLQGSVMELLQGVDGVIKRTENVTLKKPETFPKNQRRVFRAPDLKGMLEVFRELTDVRRYWVDVTVAPNNISCAVISEDKRQVSSPKPQIIYGARGTRYQTFVNFNQSITSGKHYWEVDVSKKTAWILGVCAGFQPDAMCNIEKNENYQPKYGYWVIGLEEGVKCSAFQDSSFHTPSVPFIVPLSVIICPDRVGVFLDYEACTVSFFNITNHGFLIYKFSHCSFSQPVFPYLNPRKCGVPMTLCSPSS [human TRIM5α, 8-codon deletion at 344]” has an enrichment of 1.84 ± 0.76. Sequence “MASGILVNVKEEVTCPICLELLTQPLSLDCGHSFCQACLTANHKKSMLDKGESSCPVCRISYQPENIRPNRHVANIVEKLREVKLSPEGQKVDHCARHGEKLLLFCQEDGKVICWLCERSQEHRGHHTFLTEEVAREYQVKLQAALEMLRQKQQEAEELEADIREEKASWKTQIQYDKTNVLADFEQLRDILDWEESNELQNLEKEEEDILKSLTNSETEMVQQTQSLRELISDLEHRLQGSVMELLQGVDGVIKRTENVTLKKPETFPKNQRRVFRAPDLKGMLEVFRELTDVRRYWVDVTVAPNNISCAVISEDKRQVSSPKPQIIYGARGTRYQTYCTGILGSQSITSGKHYWEVDVSKKTAWILGVCAGFQPDAMCNIEKNENYQPKYGYWVIGLEEGVKCSAFQDSSFHTPSVPFIVPLSVIICPDRVGVFLDYEACTVSFFNITNHGFLIYKFSHCSFSQPVFPYLNPRKCGVPMTLCSPSS [human TRIM5α, 5-codon deletion at 339]” has an enrichment of 1.67 ± 0.58.

± gives the standard deviation of the averaged measurements. Restriction of a single-cycle SIVsab GFP reporter by TRIM5α v1-loop variants in CRFK cells. Human variants: read share among cells still uninfected after two challenges over input, higher = gained restriction. Rhesus variants: share among infected cells over input, higher = lost restriction. Reporter dose not given per row. No active / inactive call per row; the paper calls a change when both replicates lie above its controls (mean + 2 SD of stop or wild-type variants, or the top frameshift score). Residues outside the varied loop are taken from Swiss-Prot. The paper reads the human single-substitution scores as noise; they and the rhesus combinations repeat poorly (rank correlation 0.3 to 0.4), indel scores repeat only for the top variants, rhesus substitutions well (0.9).
